{"source": "the supplement of paper PMC8728848", "binders": {"B1": {"name": "PX9961V-pdi-562-26-562 (Parabacteroides distasonis) (protein)", "chain": "EIFSEITTDNYYQNSNNIYAALVNNYAKAFSTGWSDARYFLQEVTADQLMIPTRGKHGYNGGEYVRLHEHKWTVEENFVYNGWAAPFQGIALCNNTLSDFENLDFSTFKLTEETKNEYIAELRALRVWNYMFLIDFFRHVPIVTDIEEVKAQSTPLEVFNFMESELLAILPDLPKNRGVSRFDQAGVASILVRLYLNAEKWIGISKYDECEQMAQAILDGKYGEYSIDPDYRGPFRSGINGYRSKENIMEFAIKKNYFEASWLYNMWMHYQDRYSLDNDWQGWNGGNLAPSRDLYGNLYQDKLGMPFEKFPDGDIRKKAFRVISNDGDYEGFFLMGTQYKFDYEKGYGFTDEVITGTEEYNGKPLVYVDQVGRFSEGETGLAKGSHVIYGEENTGYRLIKFPWLPQSKDLFQMNSIPEIRLAEIYYSLAECKYRSGDKIGAARLLDVVRKRYYKAEDWSKFSYESNISKLTDDEFVDELGREFIGERHRRIDLIRWNRFSEGAWWDKTPDATNQDVFPIPYRALNANPLLKQTTAGF"}}, "experiment_in_all_cases": "glycan array binding signal (z-score within array); higher = stronger binding", "conditions_in_all_cases": "glycan notation: IUPAC condensed, linker removed", "key": {"[1]": {"biological_target": "Gal(b1-4)GlcNAc(b1-3)Gal(b1-4)Glc", "how_it_was_run": "(§1)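 The Consortium for Functional Glycomics database supplied 3228 glycan arrays, of which those lacking an available protein sequence were dropped. The binding signal, a within-array Z-score, was averaged across arrays of the same protein sequence and across linkers. Negative scores can be read as non-binding.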"}, "[2]": {"biological_target": "Gal(b1-4)GlcNAc(b1-3)Gal(b1-4)GlcNAc", "how_it_was_run": "as §1"}, "[3]": {"biological_target": "Gal(b1-4)GlcNAc(b1-3)Gal(b1-4)GlcNAc(b1-2)Man(a1-3)[Gal(b1-4)GlcNAc(b1-3)Gal(b1-4)GlcNAc(b1-2)Man(a1-6)]Man(b1-4)GlcNAc(b1-4)GlcNAc", "how_it_was_run": "as §1"}, "[4]": {"biological_target": "Gal(b1-4)GlcNAc(b1-3)Gal(b1-4)GlcNAc(b1-2)Man(a1-3)[Gal(b1-4)GlcNAc(b1-3)Gal(b1-4)GlcNAc(b1-2)Man(a1-6)]Man(b1-4)GlcNAc(b1-4)[Fuc(a1-6)]GlcNAc", "how_it_was_run": "as §1"}, "[5]": {"biological_target": "Gal(b1-4)GlcNAc(b1-3)Gal(b1-4)GlcNAc(b1-2)[Gal(b1-4)GlcNAc(b1-3)Gal(b1-4)GlcNAc(b1-6)]Man(a1-6)[Gal(b1-4)GlcNAc(b1-3)Gal(b1-4)GlcNAc(b1-2)Man(a1-3)]Man(b1-4)GlcNAc(b1-4)GlcNAc", "how_it_was_run": "as §1"}, "[6]": {"biological_target": "Gal(b1-4)GlcNAc(b1-3)Gal(b1-4)GlcNAc(b1-2)[Gal(b1-4)GlcNAc(b1-3)Gal(b1-4)GlcNAc(b1-6)]Man(a1-6)[Gal(b1-4)GlcNAc(b1-3)Gal(b1-4)GlcNAc(b1-2)Man(a1-3)]Man(b1-4)GlcNAc(b1-4)[Fuc(a1-6)]GlcNAc", "how_it_was_run": "as §1"}, "[7]": {"biological_target": "Gal(b1-4)GlcNAc(b1-3)Gal(b1-4)GlcNAc(b1-3)Gal(b1-4)GlcNAc", "how_it_was_run": "as §1"}, "[8]": {"biological_target": "Gal(b1-4)GlcNAc(b1-3)Gal(b1-4)GlcNAc(b1-3)Gal(b1-4)GlcNAc(b1-2)Man(a1-3)[Gal(b1-4)GlcNAc(b1-3)Gal(b1-4)GlcNAc(b1-3)Gal(b1-4)GlcNAc(b1-2)Man(a1-6)]Man(b1-4)GlcNAc(b1-4)GlcNAc", "how_it_was_run": "as §1"}, "[9]": {"biological_target": "Gal(b1-4)GlcNAc(b1-3)Gal(b1-4)GlcNAc(b1-3)Gal(b1-4)GlcNAc(b1-2)Man(a1-3)[Gal(b1-4)GlcNAc(b1-3)Gal(b1-4)GlcNAc(b1-3)Gal(b1-4)GlcNAc(b1-2)Man(a1-6)]Man(b1-4)GlcNAc(b1-4)[Fuc(a1-6)]GlcNAc", "how_it_was_run": "as §1"}, "[10]": {"biological_target": "Gal(b1-4)GlcNAc(b1-3)Gal(b1-4)GlcNAc(b1-3)Gal(b1-4)GlcNAc(b1-2)[Gal(b1-4)GlcNAc(b1-3)Gal(b1-4)GlcNAc(b1-3)Gal(b1-4)GlcNAc(b1-6)]Man(a1-6)[Gal(b1-4)GlcNAc(b1-3)Gal(b1-4)GlcNAc(b1-3)Gal(b1-4)GlcNAc(b1-2)Man(a1-3)]Man(b1-4)GlcNAc(b1-4)[Fuc(a1-6)]GlcNAc", "how_it_was_run": "as §1"}, "[11]": {"biological_target": "Gal(b1-4)GlcNAc(b1-3)Gal(b1-4)GlcNAc(b1-3)Gal(b1-4)GlcNAc(b1-3)Gal(b1-4)GlcNAc(b1-2)Man(a1-3)[Gal(b1-4)GlcNAc(b1-3)Gal(b1-4)GlcNAc(b1-3)Gal(b1-4)GlcNAc(b1-3)Gal(b1-4)GlcNAc(b1-2)Man(a1-6)]Man(b1-4)GlcNAc(b1-4)GlcNAc", "how_it_was_run": "as §1"}, "[12]": {"biological_target": "Gal(b1-4)GlcNAc(b1-3)Gal(b1-4)GlcNAc(b1-3)Gal(b1-4)GlcNAc(b1-3)Gal(b1-4)GlcNAc(b1-2)Man(a1-3)[Gal(b1-4)GlcNAc(b1-3)Gal(b1-4)GlcNAc(b1-3)Gal(b1-4)GlcNAc(b1-3)Gal(b1-4)GlcNAc(b1-2)Man(a1-6)]Man(b1-4)GlcNAc(b1-4)[Fuc(a1-6)]GlcNAc", "how_it_was_run": "as §1"}, "[13]": {"biological_target": "Gal(b1-4)GlcNAc(b1-3)Gal(b1-4)GlcNAc(b1-3)Gal(b1-4)GlcNAc(b1-3)Gal(b1-4)GlcNAc(b1-2)[Gal(b1-4)GlcNAc(b1-3)Gal(b1-4)GlcNAc(b1-3)Gal(b1-4)GlcNAc(b1-3)Gal(b1-4)GlcNAc(b1-6)]Man(a1-6)[Gal(b1-4)GlcNAc(b1-3)Gal(b1-4)GlcNAc(b1-3)Gal(b1-4)GlcNAc(b1-3)Gal(b1-4)GlcNAc(b1-2)Man(a1-3)]Man(b1-4)GlcNAc(b1-4)[Fuc(a1-6)]GlcNAc", "how_it_was_run": "as §1"}, "[14]": {"biological_target": "Gal(b1-4)GlcNAc(b1-3)Gal(b1-4)GlcNAc(b1-3)Gal(b1-4)GlcNAc(b1-3)Gal(b1-4)GlcNAc(b1-3)Gal(b1-4)GlcNAc(b1-2)Man(a1-3)[Gal(b1-4)GlcNAc(b1-3)Gal(b1-4)GlcNAc(b1-3)Gal(b1-4)GlcNAc(b1-3)Gal(b1-4)GlcNAc(b1-3)Gal(b1-4)GlcNAc(b1-2)Man(a1-6)]Man(b1-4)GlcNAc(b1-4)GlcNAc", "how_it_was_run": "as §1"}, "[15]": {"biological_target": "Gal(b1-4)GlcNAc(b1-3)Gal(b1-4)GlcNAc(b1-3)Gal(b1-4)GlcNAc(b1-3)Gal(b1-4)GlcNAc(b1-3)Gal(b1-4)GlcNAc(b1-2)Man(a1-3)[Gal(b1-4)GlcNAc(b1-3)Gal(b1-4)GlcNAc(b1-3)Gal(b1-4)GlcNAc(b1-3)Gal(b1-4)GlcNAc(b1-3)Gal(b1-4)GlcNAc(b1-2)Man(a1-6)]Man(b1-4)GlcNAc(b1-4)[Fuc(a1-6)]GlcNAc", "how_it_was_run": "as §1"}, "[16]": {"biological_target": "Gal(b1-4)GlcNAc(b1-3)Gal(b1-4)GlcNAc(b1-3)Gal(b1-4)GlcNAc(b1-3)Gal(b1-4)GlcNAc(b1-3)Gal(b1-4)GlcNAc(b1-2)[Gal(b1-4)GlcNAc(b1-3)Gal(b1-4)GlcNAc(b1-3)Gal(b1-4)GlcNAc(b1-3)Gal(b1-4)GlcNAc(b1-3)Gal(b1-4)GlcNAc(b1-6)]Man(a1-6)[Gal(b1-4)GlcNAc(b1-3)Gal(b1-4)GlcNAc(b1-3)Gal(b1-4)GlcNAc(b1-3)Gal(b1-4)GlcNAc(b1-3)Gal(b1-4)GlcNAc(b1-2)Man(a1-3)]Man(b1-4)GlcNAc(b1-4)[Fuc(a1-6)]GlcNAc", "how_it_was_run": "as §1"}, "[17]": {"biological_target": "Gal(b1-4)GlcNAc(b1-3)Gal(b1-4)GlcNAc(b1-3)Gal(b1-4)GlcNAc(b1-3)Gal(b1-4)GlcNAc(b1-3)Gal(b1-4)GlcNAc(b1-3)Gal(b1-4)GlcNAc(b1-2)Man(a1-3)[Gal(b1-4)GlcNAc(b1-3)Gal(b1-4)GlcNAc(b1-3)Gal(b1-4)GlcNAc(b1-3)Gal(b1-4)GlcNAc(b1-3)Gal(b1-4)GlcNAc(b1-3)Gal(b1-4)GlcNAc(b1-2)Man(a1-6)]Man(b1-4)GlcNAc(b1-4)GlcNAc", "how_it_was_run": "as §1"}, "[18]": {"biological_target": "Gal(b1-4)GlcNAc(b1-3)Gal(b1-4)GlcNAc(b1-3)GalNAc", "how_it_was_run": "as §1"}, "[19]": {"biological_target": "Gal(b1-4)GlcNAc(b1-3)Gal(b1-4)GlcNAc(b1-3)[Gal(b1-4)GlcNAc(b1-3)Gal(b1-4)GlcNAc(b1-6)]GalNAc", "how_it_was_run": "as §1"}}, "note": "The list shows a part of the results.", "data": [{"binder": "B1", "values": [{"measurement": "glycan array binding signal (z-score)", "setting": "[1]", "value": -0.34}, {"measurement": "glycan array binding signal (z-score)", "setting": "[2]", "value": -0.878}, {"measurement": "glycan array binding signal (z-score)", "setting": "[3]", "value": 0.178}, {"measurement": "glycan array binding signal (z-score)", "setting": "[4]", "value": 4.04}, {"measurement": "glycan array binding signal (z-score)", "setting": "[5]", "value": 4.58}, {"measurement": "glycan array binding signal (z-score)", "setting": "[6]", "value": 0.804}, {"measurement": "glycan array binding signal (z-score)", "setting": "[7]", "value": 0.182}, {"measurement": "glycan array binding signal (z-score)", "setting": "[8]", "value": 4.36}, {"measurement": "glycan array binding signal (z-score)", "setting": "[9]", "value": 3.17}, {"measurement": "glycan array binding signal (z-score)", "setting": "[10]", "value": 2.98}, {"measurement": "glycan array binding signal (z-score)", "setting": "[11]", "value": 1.39}, {"measurement": "glycan array binding signal (z-score)", "setting": "[12]", "value": 2.85}, {"measurement": "glycan array binding signal (z-score)", "setting": "[13]", "value": 1.56}, {"measurement": "glycan array binding signal (z-score)", "setting": "[14]", "value": 1.16}, {"measurement": "glycan array binding signal (z-score)", "setting": "[15]", "value": 0.336}, {"measurement": "glycan array binding signal (z-score)", "setting": "[16]", "value": 1.6}, {"measurement": "glycan array binding signal (z-score)", "setting": "[17]", "value": 1.64}, {"measurement": "glycan array binding signal (z-score)", "setting": "[18]", "value": 2.34}, {"measurement": "glycan array binding signal (z-score)", "setting": "[19]", "value": 0.667}]}]}
